# The campaign covered roughly 45,000 compounds. About 65 (0.1%) were called active. Calls follow the shape of the dose curve; as a rule, active = well fitted activation curve with a large enough effect; inconclusive = small, poorly fitted or top-dose-only effect; inactive = no such curve, though single readings can be large or run the other way. Some of the results follow.
# Target: Galactocerebrosidase (Homo sapiens) (UniProt P54803)
# Assay: A Novel Cell-Based Assay to Identify Small Molecules for B -Galactocerebrosidase; also: nearly all actives have a fitted effect of over 65% in size; as to activation: 0% is about no effect
# Conditions: 145M-Twi-hGALC-G270D cells (Twitcher mouse brain line with human GALC G270D), HMU-beta-Gal fluorescence, 48 h; series mostly up to 57.5 µM; activation: at the top concentration
# Outline: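 Mutant human GALC (G270D), stably expressed in a Twitcher mouse brain cell line lacking endogenous GALC, is measured in live-treated cells via 6-hexadecanoylamino-4-methylumbelliferyl-β-galactoside hydrolysis (0.1 mM final, pH 5.2) with fluorescent detection.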
# Potency is read from the fitted curve at half-maximal effect.
# Chain of UniProt P54803 (P54803 whole entry, looked up): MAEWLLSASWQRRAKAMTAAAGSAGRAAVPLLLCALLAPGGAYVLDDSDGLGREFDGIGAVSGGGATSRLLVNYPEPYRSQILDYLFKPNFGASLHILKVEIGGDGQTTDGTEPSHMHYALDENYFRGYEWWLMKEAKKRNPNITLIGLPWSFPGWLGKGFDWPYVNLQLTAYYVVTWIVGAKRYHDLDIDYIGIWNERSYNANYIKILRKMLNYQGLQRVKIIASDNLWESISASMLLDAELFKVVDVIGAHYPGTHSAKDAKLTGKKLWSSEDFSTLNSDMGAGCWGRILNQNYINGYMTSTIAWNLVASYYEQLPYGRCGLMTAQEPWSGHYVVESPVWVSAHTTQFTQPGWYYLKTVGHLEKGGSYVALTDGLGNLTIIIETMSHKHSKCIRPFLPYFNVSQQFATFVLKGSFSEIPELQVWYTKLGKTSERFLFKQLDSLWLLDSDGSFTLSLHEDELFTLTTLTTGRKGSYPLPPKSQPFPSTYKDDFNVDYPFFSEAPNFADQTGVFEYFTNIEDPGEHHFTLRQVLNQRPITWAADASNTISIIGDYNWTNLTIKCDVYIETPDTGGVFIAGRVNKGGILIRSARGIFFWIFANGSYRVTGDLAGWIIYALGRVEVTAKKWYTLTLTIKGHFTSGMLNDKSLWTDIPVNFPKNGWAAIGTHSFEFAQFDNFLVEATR
Compound,activation,Potency
O=C(c1ccccc1Cl)N1CCCCC1CCN1CCCCC1 (stereo not drawn),inactive: -5.9%,–
CC(C)c1ccc(NS(=O)(=O)c2ccc3nc(-c4ccccc4)[nH]c3c2)cc1,inactive: -10.5%,–
COc1ccc(NCc2cc3cc4c(cc3n(CC(=O)Nc3cc(C)ccc3C)c2=O)OCCO4)cc1,inactive: -13.2%,–
CCOc1ccc(CN2CCc3nc(Nc4ccc5c(c4)OCCO5)ncc3C2)cc1,inactive: -12.5%,–
Cc1nn2c(=O)cc(COC(=O)c3ccccc3NC(=O)C(C)Oc3ccccc3)nc2s1 (stereo not drawn),inactive: -7.16%,–
CCOc1ccccc1NC(=O)C(CC)Sc1nc2ccncc2[nH]1 (stereo not drawn),inactive: -10%,–
COc1ccc(CCNC(=O)c2ccc(Cn3c(=O)c4ccccc4n(Cc4cccc(Cl)c4)c3=O)cc2)cc1OC,inactive: -12.1%,–
Cc1ccc(NC(=O)Cn2c(=O)n(Cc3ccco3)c(=O)c3ccccc32)c(C)c1,inactive: -0.513%,–
COc1ccc(NC(=O)c2ccc3c(c2)sc2nc(-c4ccc(OC)cc4)cn23)cc1,inactive: -4.63%,–
Cc1ccc(-n2nc3c(=O)n(CCCC(=O)NCCc4ccccc4Cl)nc(C)c3c2C)cc1,inactive: -14.3%,–
CCOc1ccc(C2CC(=O)N(c3cccc(F)c3)C3=C2C(=O)OC3)cc1 (stereo not drawn),inactive: -17.7%,–
Cc1ccc(-c2cn(-c3cccc(Cl)c3)c(S(=O)(=O)CC(=O)Nc3ccccc3F)n2)cc1,inactive: -12.6%,–
CCN(CC)c1cc2c(cc1F)c(=O)c(S(=O)(=O)c1cccc(C)c1)cn2C,inactive: -7.43%,–
Cc1ccc(-n2c(=O)c3ccc(C(=O)NCc4ccco4)cc3n(Cc3ccccc3C#N)c2=O)cc1,inactive: -12.2%,–
Cn1c(=O)c2cc(C(=O)NCCCN3CCN(c4ccccc4F)CC3)sc2c2ccccc21,inactive: -14%,–
COc1ccc(-n2cnc3cc(C(=O)NC4CCCC4)ccc32)cc1,inactive: -10.6%,–
O=C(CSc1c2c(nc3ccccc13)CCC2)Nc1ccc(F)cc1,inactive: -24.6%,–
COc1ccc(Cn2c(C(=O)O)c(CNCc3ccco3)c3ccc(OC)cc32)cc1,inactive: 1.32%,–
CCOC(=O)c1ccc(NC(=O)CSc2nnc3c4ccccc4n(CC)c3n2)cc1,inactive: 2.31%,–
CN(C)c1ccc(CNC(=O)c2ccc(Cn3c(=O)c4cccn4c4cccnc43)cc2)cc1,inactive: -6.21%,–
CC(C)(C)c1ccc(C(=O)NCC(c2ccco2)S(=O)(=O)c2ccc(F)cc2)cc1 (stereo not drawn),inactive: -34.3%,–
COc1ccc(CNC(=O)CSc2ncc3c(n2)-c2ccc(Cl)cc2N(Cc2ccc(F)cc2)S3(=O)=O)cc1OC,inactive: -3.3%,–
COCCCNC(=O)CCCn1c(SCC(=O)c2ccc(F)cc2)nc2c(sc3ccccc32)c1=O,inactive: -14.7%,–
C#C[C@]1(O)CC[C@H]2[C@@H]3CCc4cc(O)ccc4[C@H]3CC[C@@]21C,inactive: 4.89%,–

Compound,activation,Potency
COC(=O)c1ccccc1NC(=O)c1cnc(Nc2ccc(OC)cc2)c2ccccc12,inactive: 3.08%,–
CCc1ccc2ncc(C(=O)c3ccc(C)c(C)c3)c(N3CCC(C(N)=O)CC3)c2c1,inactive: -14.4%,–
COc1ccc(C2=Nc3ccc(F)cc3NC(c3cccc(C(F)(F)F)c3)=N2)cc1,inactive: -12.8%,–
CCCOc1ccc(C(=O)N(Cc2ccccc2Cl)C2CCS(=O)(=O)C2)cc1 (stereo not drawn),inactive: -8.37%,–
Cc1cccc(N2CCN(Cc3nnc(-c4ccccc4C)o3)CC2C)c1 (stereo not drawn),inactive: -19.3%,–
Cc1ccc(Cn2c(CNC(=O)CCc3ccccc3)nc3cccnc32)cc1,inactive: 1.54%,–
O=C(Cn1cnc(S(=O)(=O)N2CCCC2)c1)Nc1cccc(Br)c1,inactive: -2.71%,–
Cc1cc(-c2nc3ncccc3o2)ccc1NC(=O)c1ccccc1Br,inactive: -11.7%,–
CCCCOc1cccc(C(=O)N(Cc2ccc(N(C)C)cc2)C2CCS(=O)(=O)C2)c1 (stereo not drawn),inactive: -14.2%,–
COc1ccc(CCNC(=O)Cn2c(=O)n(-c3ccccc3)c(=O)c3c(C)c(C)sc32)cc1OC,inactive: -4.98%,–
COc1cc(OC)c(-c2cc(C(=O)NCc3ccc(F)cc3)c3c(-c4ccccc4)[nH]nc3n2)cc1OC,inactive: -17%,–
CC(=O)N1c2ccc(S(=O)(=O)N3CCCCCC3)cc2CC1C(=O)NCc1ccccc1C (stereo not drawn),inactive: -7.68%,–
Cc1ccc(CCNC(=O)CCCn2c(=O)c3ccccc3n(Cc3ccccc3C)c2=O)cc1,inactive: -6.7%,–
O=C(COc1ccc(F)cc1)NCC(c1ccc(Cl)cc1)N1CCCCC1 (stereo not drawn),inactive: -9.54%,–
CC(=O)N1CCOc2cc(S(=O)(=O)NCc3ccc(F)cc3)c(C)cc21,inactive: -11.9%,–
COc1ccc(-n2nc(C(=O)N3CCN(c4ccccc4OC)CC3)c3c4ccccc4n(C)c3c2=O)cc1Cl,inactive: -14.9%,–
COc1ccccc1CNC(=O)CCCN1C(=O)CSc2c1c(C)nn2-c1ccccc1,inactive: -14.5%,–
CC(C)C1N=C2c3ccccc3N=C(SCC(=O)NCc3ccc(Cl)cc3)N2C1=O (stereo not drawn),inactive: -14.2%,–
O=C(NC1CCCc2ccccc21)c1ccc2c(c1)sc1nc(-c3ccccc3)cn12 (stereo not drawn),inactive: -18.8%,–
O=C(Nc1ccc2c(c1)CCCN2C(=O)c1cccs1)c1ccccc1,inactive: -29.1%,–
O=C(Cn1c(=O)n(Cc2ccccc2)c(=O)c2sc3ccccc3c21)Nc1ccccc1F,inactive: 1.77%,–
Cc1cc(C)cc(NC(=O)Nc2ccc3nc(N4CCN(C)CC4)cc(C)c3c2)c1,–,active: 17.8 µM
CCOc1ccc(NC(=O)Cn2ccn3nc(-c4ccc(OC)c(OC)c4)cc3c2=O)cc1,inactive: -5.8%,–
Cc1nc(N2CCCC2)c2c(C(=O)Nc3cccc(Cl)c3)c(C)oc2n1,inactive: -6.23%,–

Compound,activation,Potency
CCCS(=O)(=O)c1nc(S(=O)(=O)c2ccc(C)cc2)c(NCc2ccccc2Cl)s1,inactive: 0.514%,–
Cc1c(C(=O)NCc2cccc(Cl)c2)sc2nc[nH]c(=O)c12,inactive: -15.1%,–
COc1cccc(Oc2nc(C)nc3c2oc2ccccc23)c1,inactive: -6.37%,–
CC(CNC(=O)CCc1cn(Cc2ccccc2Cl)c2ccccc12)c1ccccc1 (stereo not drawn),inactive: -6.65%,–
CCOc1ccccc1NC(=O)C1CCN(S(=O)(=O)c2cccs2)CC1,inactive: 0.231%,–
O=C(O)CCC(=O)Nc1sc2c(c1C(=O)Nc1ccccc1)CCCCC2,inactive: -11.5%,–
COc1ccc(NC(=O)Cn2cc(C(=O)c3ccccc3)c(=O)c3cc(OC)ccc32)c(OC)c1,inactive: -10.9%,–
Cc1ccsc1CN(C(=O)c1ccc(OCC(C)C)cc1)C1CCS(=O)(=O)C1 (stereo not drawn),inactive: -8.17%,–
CCc1ccc(NC(=O)c2ccc(F)c(S(=O)(=O)N3CCN(c4ccc(OC)cc4)CC3)c2)cc1,inactive: -6.68%,–
CC1(C)CC(=O)c2cc(C#N)c(=O)n(-c3ccc(Cl)cc3)c2C1,inactive: -14.3%,–
Cc1c(C(=O)OC(C)C)sc(NC(=O)C2c3ccccc3Oc3ccccc32)c1C(=O)OC(C)C,inactive: -3.95%,–
Cc1ccc(Sc2c(C)nn(C(=O)c3ccc(Cl)cc3)c2C)cc1,inactive: -8.36%,–
Cc1ccc(-n2c3nc(=O)[nH]c(=O)c-3cc3c(C)nn(-c4ccccc4)c32)cc1C,inactive: 1.52%,–
CCOC(=O)c1c(S(=O)(=O)N2CCCC(C(=O)Nc3ccc(C)cn3)C2)c(C)n(C)c1C (stereo not drawn),inactive: -13.3%,–
Cc1ccc2oc(-c3cccc(NC(=O)Cc4ccc(Cl)cc4)c3)nc2c1,inactive: -7.31%,–
CCOC(=O)c1cccc(NS(=O)(=O)c2cc(-c3cnc(C4CC4)o3)ccc2C)c1,inactive: -12.2%,–
Cc1cccc(N2CCN(C(=O)c3cc4c(=O)oc5ccccc5c4s3)CC2C)c1 (stereo not drawn),inactive: 21.3%,–
Cc1ccc(NC(=O)CSc2cc(=O)n(C)c3ccc(Cl)cc23)c(Br)c1,inactive: -7.33%,–
CCc1ccc(CNC(=O)c2ccc3nc(SCc4ccc(F)cc4)n(C)c3c2)cc1,inactive: -15.7%,–
Cc1ccc(NS(=O)(=O)c2ccc3c(c2)NC(=O)C(C)C(=O)N3)cc1F (stereo not drawn),inactive: 14.4%,–
Cc1cc(C)c2nc(N3CCCC(C(=O)NCc4cccc(Cl)c4)C3)sc2c1 (stereo not drawn),inactive: 29.1%,–
CC(C)CN(CC(C)C)C(=O)C1CCCN(S(=O)(=O)c2ccc3c(c2)oc(=O)n3C)C1 (stereo not drawn),inactive: -18.1%,–
COc1cccc(NC(=O)c2nn(-c3ccc(C)cc3)c(=O)n(C)c2=O)c1,inactive: -4.38%,–
COc1ccc(CNS(=O)(=O)c2cc3c(cc2C)n(C)c(=O)c(=O)n3C)cc1,inactive: -2.12%,–

Compound,activation,Potency
CCCCN(C)CCNC(=O)c1c(C)oc2ncnc(N3CCOCC3)c12,inactive: -9.58%,–
Cc1ccc(NC(=O)c2cnn(-c3ccc(C)c(C)c3)c2C2CCN(C(=O)OC(C)(C)C)CC2)c(C)c1,inactive: -19.4%,–
Cc1cccc(NC(=O)Cn2c(=O)n(CCC(C)C)c(=O)c3cccnc32)c1,inactive: -14%,–
CC(NC(=O)c1ccc2c(c1)N(Cc1cccc(F)c1)C(=O)c1ccccc1S2)c1ccccc1 (stereo not drawn),inactive: -10.7%,–
Cc1ccc(-n2c(=O)c3c(c4cc(C)ccc4n3C)n(CC(=O)Nc3c(C)cccc3C)c2=O)cc1,inactive: 12.4%,–
O=C(CCSCCc1ccccn1)Nc1cc(F)ccc1F,inactive: -3.39%,–
Cc1ccc(-n2nc(C(=O)N3CCN(c4cccc(C(F)(F)F)c4)CC3)c(=O)n(C)c2=O)cc1,inactive: -18.6%,–
COc1cc(NC(=O)CN2C(=O)C(c3ccc(C)cc3)=NC23CCCCC3)cc(OC)c1,inactive: -9.19%,–
Cc1ccc(CNc2ccc(-c3nc(C(C)C)no3)cc2[N+](=O)[O-])cc1,inactive: -14.3%,–
Cc1ccc(Cn2c(=O)n(Cc3ccco3)c(=O)c3sc4ccccc4c32)cc1,inactive: -5.57%,–
O=c1c2cnn(-c3ccc(Cl)cc3)c2ncn1Cc1ccc(Cl)cc1Cl,inactive: -18%,–
CC1=C(C(=O)Nc2ccccc2)C(c2cccnc2)n2nc(SCc3ccccc3F)nc2N1 (stereo not drawn),inactive: -9.74%,–
COc1cccc(CNC(=O)C2CCN(C(=O)N3CCOc4ccc(Cl)cc43)CC2)c1OC,inactive: -6.51%,–
COc1ccc(Cl)cc1NC(=O)c1cc(C)nc2c1c(C)nn2-c1ccccc1,inactive: -11.3%,–
CCC(CC)C(=O)Nc1cc(-c2cccc(C)c2)nn1-c1ccccc1,inactive: -0.17%,–
O=c1c2sc3ccccc3c2n(Cc2ccccc2F)c(=O)n1Cc1ccccc1,inactive: -0.0209%,–
O=C(CC1N=C2c3ccccc3N=C(SCc3ccccc3F)N2C1=O)NCCc1ccccc1 (stereo not drawn),inactive: -30.8%,–
CC(=O)N1CCC2(CC1)OC(=O)C(C)=C2C(=O)Nc1cccc(Cl)c1C,inactive: -0.977%,–
Cc1cccc(C(=O)Nc2cc3c(cc2N2CCCCC2)n(C)c(=O)c(=O)n3C)c1,inactive: -15.6%,–
CCCCC(=O)Nc1cc(C)c(O)c(-c2nc3ncccc3o2)c1,inactive: -31.3%,–
CCOC(=O)c1ccc(NC(=O)Cn2nc(SC)c(S(=O)(=O)c3ccc(Cl)cc3)c2N)cc1,inactive: -5.52%,–

# Source: PubChem BioAssay AID1159614 (National Center for Advancing Translational Sciences (NCATS), 2016)
